The source of these data is a collection of fitness landscapes (doi:10.1126/science.1257360).

Some of the results follow.

The labels stand for the following.
B1: PhoQ; a variant is named by its letters at X, in order, P23837 (parent)
chain: MKKLLRLFFPLSLRVRFLLATAAVVLVLSLAYGMVALIGYSVSFDKTTFRLLRGESNLFYTLAKWENNKLHVELPENIDKQSPTMTLIYDENGQLLWAQRDVPWLMKMIQPDWLKSNGFHEIEADVNDTSLLLSGDHSIQQQLQEVREDDDDAEMTHSVAVNVYPATSRMPKLTIVVVDTIPVELKSSYMVWSWFIYVLSANLLLVIPLLWVAAWWSLRPIEALAKEVRELEEHNRELLNPATTRELTSLVRNLNRLLKSERERYDKYRTTLTDLTHSLKTPLXXLQXXLRSLRSEKMSVSDAEPVMLEQISRISQQIGYYLHRASMRGGTLLSRELHPVAPLLDNLTSALNKVYQRKGVNISLDISPEISFVGEQNDFVEVMGNVLDNACKYCLEFVEISARQTDEHLYIVVEDDGPGIPLSKREVIFDRGQRVDTLRPGQGVGLAVAREITEQYEGKIVAGESMLGGARMEVIFGRQHSAPKDE

In the experiment the parent is B1. The experiment is described as follows: enrichment ratio after two sorts for PhoP signalling (ratio (wild type AVST 3.29)); higher = more functional. As to conditions: with PhoP (E. coli).
On to FVCN, for which the enrichment ratio was 1.43. Next, HKVG: not above 0.25; EFSI: not above 0.25; RGQH: not above 0.25. Next, FNHW: not above 0.25; KFCC: not above 0.25; WHLN: not above 0.25. Next, DTEV: 2.38; MLCP: not above 0.25. For the variant PGYE, the enrichment ratio was not above 0.25. Regarding RMAI, the enrichment ratio was not above 0.25. Next, SGMM: 5; YEAH: not above 0.25. Then FPKY, with not above 0.25; and MCGF, with 8.81; and LVYN, with not above 0.25.

Turning to NHRL, the enrichment ratio was not above 0.25.

For the variant CFWY, the enrichment ratio is not above 0.25. On to MMVH, for which the enrichment ratio is not above 0.25.

Regarding RCTS, the enrichment ratio is not above 0.25. Regarding NVWE, the enrichment ratio is not above 0.25. Then WYEP, with not above 0.25; and IFDM, with not above 0.25; and WMTC, with not above 0.25. As to QKVR, the enrichment ratio is not above 0.25. Then VFHH, with not above 0.25; and FYER, with not above 0.25. Consider RGFA, for which the enrichment ratio is not above 0.25. Then KLLC, with not above 0.25; and LIHL, with not above 0.25. Take WAVP: the enrichment ratio was not above 0.25. Next, QRSE: not above 0.25; EGHW: not above 0.25; WAVF: not above 0.25. Then KRPK, with not above 0.25; and TGGE, with not above 0.25. Then YTMW, with not above 0.25. Turning to KMQV, the enrichment ratio was not above 0.25. Next, EYHW: not above 0.25; TPQH: not above 0.25; RFEC: not above 0.25. Then MEHW, with not above 0.25. Then IQAL, with not above 0.25; and WFNG, with not above 0.25; and TEQM, with 17.8.

Consider DPYN, for which the enrichment ratio is not above 0.25. For GTMA, the enrichment ratio is not above 0.25. Turning to GSCD, the enrichment ratio was not above 0.25. Then FLVY, with not above 0.25; and SSVV, with 10.3; and DVFP, with not above 0.25. Then CFSS, with 11.9; and LFCS, with not above 0.25. Next, VCIT: not above 0.25; PSWT: not above 0.25. Consider HYSG, for which the enrichment ratio is not above 0.25. Next, KMHM: not above 0.25; SVLK: 0.56; VQFI: not above 0.25.

On to IFKH, for which the enrichment ratio is not above 0.25.

Take VRCG: the enrichment ratio was not above 0.25. Then FMPI, with not above 0.25; and YAWL, with not above 0.25. Then GALK, with not above 0.25. Next, QSGQ: not above 0.25. Consider SEIV, for which the enrichment ratio stood at 18.7. Then SPAV, with not above 0.25; and YFDP, with not above 0.25; and DVTF, with not above 0.25. Next, HPTQ: not above 0.25; GKNR: not above 0.25; NYQY: not above 0.25. Consider GCNM, for which the enrichment ratio is not above 0.25. For WDAQ, the enrichment ratio was not above 0.25. Turning to RNTH, the enrichment ratio was not above 0.25. Take KSEP: the enrichment ratio was not above 0.25. Then LTES, with not above 0.25; and YDIP, with not above 0.25; and EIRQ, with not above 0.25. In the case of HLEL, the enrichment ratio is not above 0.25. With YAVS, the enrichment ratio is not above 0.25. Next, WVKD: not above 0.25; VGYR: not above 0.25; IPCT: not above 0.25.

ARQF: the enrichment ratio was not above 0.25. Next, KCGN: not above 0.25; PWTS: not above 0.25. Then FKES, with not above 0.25. Regarding KTWM, the enrichment ratio is not above 0.25. Then ELRG, with not above 0.25; and GWQK, with not above 0.25; and SQDQ, with 6.3. Take LSNY: the enrichment ratio is not above 0.25. For SAEI, the enrichment ratio was not above 0.25. Next, SGFS: not above 0.25; DGVA: not above 0.25; EQEV: not above 0.25. Consider EEYL, for which the enrichment ratio is not above 0.25. Next, EQMC: not above 0.25; QFDM: not above 0.25; YHKA: not above 0.25. Next, KTSE: not above 0.25; SWNY: not above 0.25. In the case of NAFQ, the enrichment ratio is not above 0.25. Next, RPAH: not above 0.25; QFHM: not above 0.25.

As for HQTA, the enrichment ratio was not above 0.25. Next, PQRV: not above 0.25. As to VEET, the enrichment ratio is not above 0.25.

YFFK: the enrichment ratio is not above 0.25. Next, PAWR: not above 0.25. Take MCVM: the enrichment ratio is not above 0.25. Next, DLHR: not above 0.25; ICKT: not above 0.25; KIQL: not above 0.25. Then NLVR, with not above 0.25; and NSHK, with not above 0.25; and RKRE, with not above 0.25. Next, ASNF: 5.09; VGHE: not above 0.25. Take WMGK: the enrichment ratio was not above 0.25. Then KQYV, with not above 0.25; and PCMA, with not above 0.25. Then WSPA, with not above 0.25; and HDIT, with not above 0.25; and KSFQ, with not above 0.25. Next, AQQM: not above 0.25; FDWF: not above 0.25. Turning to ESCA, the enrichment ratio was not above 0.25. For QMSA, the enrichment ratio is not above 0.25.

Take HLQV: the enrichment ratio is not above 0.25. Then KKSC, with not above 0.25; and IQNK, with not above 0.25; and TQFH, with not above 0.25.

Take GYHW: the enrichment ratio was not above 0.25. Next, DMDE: not above 0.25; PNQS: not above 0.25; LNTW: not above 0.25. Then IRSP, with not above 0.25; and PSGS, with not above 0.25. On to APCS, for which the enrichment ratio was not above 0.25.

Take EPPS: the enrichment ratio was not above 0.25. Next, MCCM: 4.5. Next, PIED: not above 0.25; PFNL: not above 0.25; RGTA: not above 0.25. With LVYM, the enrichment ratio was not above 0.25.

For the variant KAPY, the enrichment ratio was not above 0.25. With DCFT, the enrichment ratio is not above 0.25. Then SGWT, with not above 0.25; and TTIH, with not above 0.25; and GHTG, with not above 0.25. Then VQAT, with not above 0.25. Next, NGKE: not above 0.25; RKGC: not above 0.25. Consider KVLN, for which the enrichment ratio is not above 0.25. For the variant DRTV, the enrichment ratio is not above 0.25. SWNE: the enrichment ratio is not above 0.25. Next, QYVY: not above 0.25. Next, HGHV: not above 0.25; RYKR: not above 0.25. Regarding PIIP, the enrichment ratio was not above 0.25. Then PMPM, with not above 0.25. Take WLPT: the enrichment ratio is not above 0.25. For the variant WSMM, the enrichment ratio is not above 0.25.

In the case of YVGS, the enrichment ratio was not above 0.25. In the case of RAMD, the enrichment ratio is not above 0.25. Then RRGM, with not above 0.25; and LDPR, with not above 0.25; and RRSM, with not above 0.25. Next, YQAG: not above 0.25; TMHI: 0.949. Next, TGQW: not above 0.25; LLWC: not above 0.25. On to VKWK, for which the enrichment ratio was not above 0.25. Next, NLKP: not above 0.25; HRER: not above 0.25; YWPI: not above 0.25.

For the variant TNRN, the enrichment ratio is not above 0.25. Then TLEG, with not above 0.25; and VARE, with not above 0.25; and WFWF, with not above 0.25. Consider VLNS, for which the enrichment ratio was not above 0.25. Then VLPP, with not above 0.25; and MIAP, with not above 0.25; and NADS, with not above 0.25. Then MEHQ, with not above 0.25; and IYSM, with not above 0.25; and YFFA, with not above 0.25. As to YITV, the enrichment ratio was determined as 0.482. Then HKFG, with not above 0.25; and LLQW, with not above 0.25; and TTYP, with not above 0.25.

Turning to PGHA, the enrichment ratio was not above 0.25. Next, ANYD: not above 0.25. Next, RIRL: not above 0.25; KCQV: not above 0.25; SALM: 12.7. Next, WSTV: not above 0.25; GMGG: not above 0.25; IRGY: not above 0.25. For TEHH, the enrichment ratio is not above 0.25. Then TAKY, with not above 0.25; and HGPY, with not above 0.25; and HYSW, with not above 0.25. Then MIAF, with 14. Then HYAL, with not above 0.25.

As for YTTG, the enrichment ratio was not above 0.25.

Take HRQC: the enrichment ratio is not above 0.25. Then YYPN, with not above 0.25; and RHYA, with not above 0.25.

In the case of LMYG, the enrichment ratio was not above 0.25. Then VPCW, with 1.13; and CHFP, with not above 0.25. As to QAVN, the enrichment ratio is not above 0.25. With WDVF, the enrichment ratio was not above 0.25. Next, NGVR: not above 0.25; HNVC: not above 0.25; MYHK: not above 0.25. Consider ERED, for which the enrichment ratio was not above 0.25. Then KNDR, with not above 0.25; and MASC, with not above 0.25; and KVRS, with not above 0.25. Next, TCSM: 18.9. Then NAVY, with not above 0.25; and YSFP, with not above 0.25; and SSTK, with not above 0.25. Consider TTYC, for which the enrichment ratio was not above 0.25. LDHY: the enrichment ratio is not above 0.25. Next, WLYW: not above 0.25; IYIA: not above 0.25; FWEW: not above 0.25.

GAHG: the enrichment ratio was not above 0.25. As for IRCT, the enrichment ratio was not above 0.25. Next, RMNP: not above 0.25; PDLN: not above 0.25. Then FGGV, with not above 0.25; and MIFT, with not above 0.25; and DSLL, with not above 0.25. Then TYNV, with not above 0.25; and VLMK, with not above 0.25. With MEDF, the enrichment ratio was not above 0.25. Next, LDSS: not above 0.25.

Turning to MNGT, the enrichment ratio worked out at 6.87. Next, HGSS: not above 0.25. Next, QMIW: not above 0.25; YYYV: not above 0.25; WTSK: not above 0.25. Next, YQWY: not above 0.25. On to TCFF, for which the enrichment ratio is not above 0.25. As for SHHH, the enrichment ratio was not above 0.25.

In the case of MIRP, the enrichment ratio was not above 0.25. Next, SFYN: not above 0.25. Then LTDS, with not above 0.25; and PCTV, with not above 0.25.

Regarding SMYL, the enrichment ratio was not above 0.25. As for YDDD, the enrichment ratio was not above 0.25. In the case of HTLV, the enrichment ratio was not above 0.25.

For the variant LCMP, the enrichment ratio is not above 0.25. Then LSTE, with not above 0.25.

As for RIAC, the enrichment ratio was not above 0.25. Next, LWDA: not above 0.25; YYDA: not above 0.25. Next, VRDL: not above 0.25; SNFI: not above 0.25.

For the variant MADE, the enrichment ratio is not above 0.25. Then FICF, with 5.34; and PFAE, with not above 0.25. Take AKNS: the enrichment ratio is not above 0.25.

Consider TLQD, for which the enrichment ratio was not above 0.25. Then STCK, with 12.3; and TSVN, with 5.59; and DCNI, with not above 0.25.

Take LKVA: the enrichment ratio was not above 0.25. Next, QNLH: not above 0.25; LQWN: not above 0.25. Take EVKF: the enrichment ratio was not above 0.25.

Regarding VPPY, the enrichment ratio was not above 0.25.

As to RYIE, the enrichment ratio was not above 0.25. Next, TMYY: not above 0.25; WVPG: not above 0.25. For the variant MWCY, the enrichment ratio is not above 0.25. Next, LRCH: not above 0.25. Next, GEYD: not above 0.25; RCHS: not above 0.25. Turning to EYDH, the enrichment ratio is not above 0.25. Then WIFH, with not above 0.25. Regarding GPFN, the enrichment ratio is not above 0.25.

Consider LKGL, for which the enrichment ratio was not above 0.25.

As for ECDC, the enrichment ratio is not above 0.25. Next, MFEQ: not above 0.25; TCFI: not above 0.25; GVAH: 0.601.

Regarding IIGV, the enrichment ratio is not above 0.25. Regarding FHFP, the enrichment ratio was not above 0.25. Then MKLH, with not above 0.25; and WRSH, with not above 0.25. Regarding VNTE, the enrichment ratio was not above 0.25. Next, FCTN: not above 0.25.

On to GETY, for which the enrichment ratio was 11.2. Turning to TWTF, the enrichment ratio is not above 0.25.

Take WVGK: the enrichment ratio was not above 0.25. Then VSCG, with not above 0.25; and KQIS, with not above 0.25. Then WTTS, with not above 0.25; and AEME, with 29.5.
